# Results taken from the supplement of paper PMC8728848.
# The list shows a part of the results.
# B1: Gal 3 (Homo sapiens), P17931 (protein)
# chain: MADNFSLHDALSGSGNPNPQGWPGAWGNQPAGAGGYPGASYPGAYPGQAPPGAYPGQAPPGAYHGAPGAYPGAPAPGVYPGPPSGPGAYPSSGQPSAPGAYPATGPYGAPAGPLIVPYNLPLPGGVVPRMLITILGTVKPNANILDFQRGNDVAFHFNPRFNENNRRVIVCNTKLDNNWGREESQSVFPFESGKPFKIQVLVEPDHFKVAVNDAHLLQYNHRVKKLNEISKLGISGDIDLTSASYTMI
# Experiments:
# Assay in all cases: glycan array binding signal (z-score within array); higher = stronger binding
# Details in all cases: glycan notation: IUPAC condensed, linker removed; mutation: R186S
# [1] = molecular target: Gal(b1-3)GalNAc(a1-3)[Fuc(a1-2)]Gal(b1-4)GlcNAc
# In short: (§1)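 From the Consortium for Functional Glycomics database, 3228 arrays were curated, keeping only those whose protein sequence was available. Binding is given as a within-array Z-score averaged across arrays sharing a protein sequence and across linkers. Negative Z-scores can be read as non-binding.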
# [2] = molecular target: Gal(b1-3)GalNAc(b1-3)Gal(a1-4)Gal(b1-4)Glc
# In short: as §1
# [3] = molecular target: Gal(b1-3)GalNAc(b1-4)Gal(b1-4)Glc
# In short: as §1
# [4] = molecular target: Gal(b1-3)GalNAc(b1-4)[Neu5Ac(a2-3)]Gal(b1-4)Glc
# In short: as §1
# [5] = molecular target: Gal(b1-3)GlcNAc
# In short: as §1
# [6] = molecular target: Gal(b1-3)GlcNAc(a1-6)Gal(b1-4)GlcNAc
# In short: as §1
# [7] = molecular target: Gal(b1-3)GlcNAc(b1-2)Man(a1-3)[Gal(b1-3)GlcNAc(b1-2)Man(a1-6)]Man(b1-4)GlcNAc(b1-4)GlcNAc
# In short: as §1
# [8] = molecular target: Gal(b1-3)GlcNAc(b1-2)Man(a1-3)[Gal(b1-3)GlcNAc(b1-2)Man(a1-6)]Man(b1-4)GlcNAc(b1-4)[Fuc(a1-6)]GlcNAc
# In short: as §1
# [9] = molecular target: Gal(b1-3)GlcNAc(b1-3)Gal(b1-3)GlcNAc
# In short: as §1
# [10] = molecular target: Gal(b1-3)GlcNAc(b1-3)Gal(b1-4)Glc
# In short: as §1
# [11] = molecular target: Gal(b1-3)GlcNAc(b1-3)Gal(b1-4)GlcNAc
# In short: as §1
# [12] = molecular target: Gal(b1-3)GlcNAc(b1-3)Gal(b1-4)GlcNAc(b1-6)[Gal(b1-3)GlcNAc(b1-3)]Gal(b1-4)Glc
# In short: as §1
# [13] = molecular target: Gal(b1-3)GlcNAc(b1-3)Gal(b1-4)[Fuc(a1-3)]GlcNAc(b1-6)[Gal(b1-3)GlcNAc(b1-3)]Gal(b1-4)Glc
# In short: as §1
# [14] = molecular target: Gal(b1-3)GlcNAc(b1-3)GalNAc
# In short: as §1
# [15] = molecular target: Gal(b1-3)GlcNAc(b1-6)Gal(b1-4)GlcNAc
# In short: as §1
# [16] = molecular target: Gal(b1-3)[Fuc(a1-4)]GlcNAc
# In short: as §1
# [17] = molecular target: Gal(b1-3)[Fuc(a1-4)]GlcNAc(b1-2)Man(a1-3)[Gal(b1-3)[Fuc(a1-4)]GlcNAc(b1-2)Man(a1-6)]Man(b1-4)GlcNAc(b1-4)GlcNAc
# In short: as §1
# [18] = molecular target: Gal(b1-3)[Fuc(a1-4)]GlcNAc(b1-2)Man(a1-3)[Gal(b1-3)[Fuc(a1-4)]GlcNAc(b1-2)Man(a1-6)]Man(b1-4)GlcNAc(b1-4)[Fuc(a1-6)]GlcNAc
# In short: as §1
# [19] = molecular target: Gal(b1-3)[Fuc(a1-4)]GlcNAc(b1-3)Gal(b1-3)[Fuc(a1-4)]GlcNAc
# In short: as §1
# [20] = molecular target: Gal(b1-3)[Fuc(a1-4)]GlcNAc(b1-3)Gal(b1-4)GlcNAc
# In short: as §1
# [21] = molecular target: Gal(b1-3)[Fuc(a1-4)]GlcNAc(b1-3)Gal(b1-4)[Fuc(a1-3)]GlcNAc
# In short: as §1
# [22] = molecular target: Gal(b1-3)[GlcNAc(b1-6)]GalNAc
# In short: as §1
# [23] = molecular target: Gal(b1-3)[Neu5Ac(a2-6)]GalNAc
# In short: as §1
# [24] = molecular target: Gal(b1-3)[Neu5Ac(a2-6)]GlcNAc(b1-6)Gal(b1-4)Glc
# In short: as §1
# [25] = molecular target: Gal(b1-3)[Neu5Ac(b2-6)]GalNAc
# In short: as §1
# [26] = molecular target: Gal(b1-4)GalNAc(a1-3)[Fuc(a1-2)]Gal(b1-4)GlcNAc
# In short: as §1
# [27] = molecular target: Gal(b1-4)GalNAc(b1-3)[Fuc(a1-2)]Gal(b1-4)GlcNAc
# In short: as §1
# [28] = molecular target: Gal(b1-4)Glc
# In short: as §1
# [29] = molecular target: Gal(b1-4)Glc6S
# In short: as §1
# [30] = molecular target: Gal(b1-4)GlcNAc
# In short: as §1
# [31] = molecular target: Gal(b1-4)GlcNAc(a1-6)Gal(b1-4)GlcNAc
# In short: as §1
# [32] = molecular target: Gal(b1-4)GlcNAc(b1-2)Man(a1-3)Man(b1-4)GlcNAc(b1-4)GlcNAc
# In short: as §1
# [33] = molecular target: Gal(b1-4)GlcNAc(b1-2)Man(a1-3)[Gal(b1-4)GlcNAc(b1-2)Man(a1-6)]Man(b1-4)GlcNAc(b1-4)GlcNAc
# In short: as §1
# [34] = molecular target: Gal(b1-4)GlcNAc(b1-2)Man(a1-3)[Gal(b1-4)GlcNAc(b1-2)Man(a1-6)]Man(b1-4)GlcNAc(b1-4)[Fuc(a1-6)]GlcNAc
# In short: as §1
# [35] = molecular target: Gal(b1-4)GlcNAc(b1-2)Man(a1-3)[GlcNAc(b1-2)Man(a1-6)]Man(b1-4)GlcNAc(b1-4)GlcNAc
# In short: as §1
# [36] = molecular target: Gal(b1-4)GlcNAc(b1-2)Man(a1-3)[Man(a1-6)]Man(b1-4)GlcNAc(b1-4)GlcNAc
# In short: as §1
# [37] = molecular target: Gal(b1-4)GlcNAc(b1-2)Man(a1-6)Man(b1-4)GlcNAc(b1-4)GlcNAc
# In short: as §1
binder,measurement,setting,value
B1,glycan array binding signal (z-score),[1],-0.079
same,glycan array binding signal (z-score),[2],-0.068
same,glycan array binding signal (z-score),[3],-0.035
same,glycan array binding signal (z-score),[4],-0.03
same,glycan array binding signal (z-score),[5],-0.054
same,glycan array binding signal (z-score),[6],-0.07
same,glycan array binding signal (z-score),[7],-0.084
same,glycan array binding signal (z-score),[8],-0.088
same,glycan array binding signal (z-score),[9],-0.026
same,glycan array binding signal (z-score),[10],-0.038
same,glycan array binding signal (z-score),[11],-0.05
same,glycan array binding signal (z-score),[12],-0.043
same,glycan array binding signal (z-score),[13],-0.042
same,glycan array binding signal (z-score),[14],-0.079
same,glycan array binding signal (z-score),[15],-0.089
same,glycan array binding signal (z-score),[16],-0.037
same,glycan array binding signal (z-score),[17],0.028
same,glycan array binding signal (z-score),[18],-0.048
same,glycan array binding signal (z-score),[19],-0.053
same,glycan array binding signal (z-score),[20],-0.03
same,glycan array binding signal (z-score),[21],-0.051
same,glycan array binding signal (z-score),[22],-0.058
same,glycan array binding signal (z-score),[23],-0.068
same,glycan array binding signal (z-score),[24],-0.056
same,glycan array binding signal (z-score),[25],-0.07
same,glycan array binding signal (z-score),[26],-0.059
same,glycan array binding signal (z-score),[27],-0.047
same,glycan array binding signal (z-score),[28],-0.029
same,glycan array binding signal (z-score),[29],-0.05
same,glycan array binding signal (z-score),[30],-0.05
same,glycan array binding signal (z-score),[31],-0.047
same,glycan array binding signal (z-score),[32],-0.041
same,glycan array binding signal (z-score),[33],-0.082
same,glycan array binding signal (z-score),[34],-0.086
same,glycan array binding signal (z-score),[35],-0.073
same,glycan array binding signal (z-score),[36],-0.024
same,glycan array binding signal (z-score),[37],-0.056
